# Test results: the supplement of paper PMC9135407
# Where “and” joins values, the source holds several entries; their conditions need not be identical. Equal entries are not always repeated. Structures can show the parent of a compound that is named as a salt. Hit rate of the full screen: of about 5,800 compounds, about 620 (11%) showed activity.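 The calls were made as follows: active = score above a cut-off or among the top three wells of a plate; in these data no inactive exceeds 0.85.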 The entries are a selection whose mix differs from that of the whole data set.
# System: primary human hepatic stellate cells (donor 1)
# Test: scaled lipid accumulation score (0 = DMSO-like, 1 = nortriptyline-like); higher = stronger HSC inactivation (lipid re-accumulation), active = hit call of the paper
# Conditions: 48 h
# Procedure: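 Primary lipid accumulation screen in primary human hepatic stellate cell myofibroblasts (donor 1, passage 8) in 384-well plates. 100 nL of library compound was pin-transferred into 30 µL medium in duplicate, and cells were treated for 48 h. The 'Scaled' score combines distance from plate baseline, toxicity and reproducibility penalties, and is normalised to nortriptyline (positive) and DMSO (negative) controls on each plate. A hit is defined as scaled >0.85 or among the top 3 wells per plate.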
# [1] = library stock concentration: 10 mM
smiles,measurement,setting,value
CCC[C@@H]1CC2=CC(=O)CC[C@]2(C)[C@H]2CC[C@@]3(C)[C@@H](CC[C@@]3(O)CCC(=O)O)[C@H]12,scaled lipid accumulation score,[1],inactive: 0.026
CC1=C2C(=CO[C@H](C)[C@H]2C)C(O)=C(C(=O)O)C1=O [Citrinin],scaled lipid accumulation score,[1],inactive: ≤ 0
"C[C@]12CC[C@@H](O)C[C@@H]1CC[C@@H]1[C@@H]2CC[C@]2(C)[C@@H](C(=O)CO)CC[C@@H]12 [3-alpha,21-Dihydroxy-5-alpha-pregnan-20-one]",scaled lipid accumulation score,[1],inactive: ≤ -0.007
C[C@@H]1O[C@@H](O[C@H]2C[C@@H](O)[C@]3(CO)[C@H]4[C@H](O)C[C@]5(C)[C@@H](C6=CC(=O)OC6)CC[C@]5(O)[C@@H]4CC[C@]3(O)C2)[C@H](O)[C@H](O)[C@H]1O.O.O.O.O.O.O.O.O [Strophantine octahydrate],scaled lipid accumulation score,,active: 1.02
Cc1nnc2n1-c1sc(CCC(=O)N3CCOCC3)cc1C(c1ccccc1Cl)=NC2,scaled lipid accumulation score,[1],inactive: ≤ -0.001
CC[N+]1(C)CCCC(OC(=O)C(O)(c2ccccc2)c2ccccc2)C1 (stereo not given) [Pipenzolate bromide],scaled lipid accumulation score,,inactive: ≤ 0
same,scaled lipid accumulation score,[1],inactive: ≤ -0.027
C/C=C(/C)C(=O)O[C@H]1C(C)=C2[C@H]([C@@H]1OC(=O)CCCCCCC)[C@@](C)(OC(C)=O)C[C@H](OC(=O)CCC)[C@@]1(O)[C@H]2OC(=O)[C@@]1(C)O [Thapsigargin],scaled lipid accumulation score,library stock concentration: 7.7 mM,inactive: 0.266
same,scaled lipid accumulation score,[1],inactive: ≤ 0
COC1(C[S@+]([O-])c2ccccc2)CCN(CCc2c[nH]c3ccc(F)cc23)CC1,scaled lipid accumulation score,[1],inactive: 0.611
NC(C(=O)O)c1nn[nH]n1 (racemic) [(RS)-(Tetrazol-5-yl)glycine],scaled lipid accumulation score,[1],inactive: ≤ 0
CCCN(CCC)[C@H]1CCc2c(F)ccc(O)c2C1 [S(-)-UH-301 hydrochloride],scaled lipid accumulation score,[1],inactive: 0.149
"c1ccc(C2CNCc3ccccc32)cc1 (stereo not given) [4-Phenyl-1,2,3,4-tetrahydroisoquinoline hydrochloride]",scaled lipid accumulation score,[1],inactive: 0.217
COc1ccc2c(c1)[nH]c1c(C)nccc12.Cl [Harmine hydrochloride],scaled lipid accumulation score,,active: 0.89
c1ccc2c(c1)OCC(C1=NCCN1)O2 (stereo not given) [Idazoxan hydrochloride],scaled lipid accumulation score,,inactive: ≤ 0
same,scaled lipid accumulation score,[1],inactive: 0.384 and inactive: 0.15
Cc1cc([C@@H]2CCCN2C)on1 [ABT-418 hydrochloride],scaled lipid accumulation score,[1],inactive: ≤ 0
CN1C(=O)CN=C(c2ccccc2)c2cc(Cl)ccc21 [Diazepam],scaled lipid accumulation score,[1],inactive: ≤ 0
C[C@]12CC[C@H](O)CC1=CC[C@@H]1[C@@H]2CC[C@]2(C)C(=O)CC[C@@H]12 [Dehydroepiandrosterone (DHEA)],scaled lipid accumulation score,library stock concentration: 3.33 mM,inactive: ≤ 0
same,scaled lipid accumulation score,[1],inactive: ≤ 0
C[C@]12CC[C@H](O)CC1=CC[C@@H]1[C@@H]2CC[C@]2(C)C(=O)CC[C@@H]12 [Dehydroepiandrosterone],scaled lipid accumulation score,library stock concentration: 6.9 mM,inactive: 0.032
C[C@]12CC[C@H](O)CC1=CC[C@@H]1[C@@H]2CC[C@]2(C)C(=O)CC[C@@H]12,scaled lipid accumulation score,[1],inactive: ≤ 0
COc1cc2c(c(OC)c1OC)-c1ccc(OC)c(=O)cc1[C@@H](NC(C)=O)CC2 [Colchicine],scaled lipid accumulation score,,inactive: 0.537
same,scaled lipid accumulation score,library stock concentration: 5 mM,inactive: 0.127
same,scaled lipid accumulation score,[1],inactive: 0.319 and inactive: 0.49 and inactive: 0.08
N#C[C@H](O[C@@H]1O[C@H](CO[C@@H]2O[C@H](CO)[C@@H](O)[C@H](O)[C@H]2O)[C@@H](O)[C@H](O)[C@H]1O)c1ccccc1 [Amygdalin],scaled lipid accumulation score,[1],inactive: 0.097
CC[C@@H](CO)NC(=O)[C@@H]1C=C2c3cccc4c3c(cn4C)C[C@H]2N(C)C1 [Methysergide maleate],scaled lipid accumulation score,[1],inactive: 0.458 and inactive: 0.048
CC[C@@H](CO)NC(=O)[C@@H]1C=C2c3cccc4c3c(cn4C)C[C@H]2N(C)C1 [Methysergide],scaled lipid accumulation score,library stock concentration: 5.7 mM,inactive: ≤ 0
CC(C)C1CNC(C(=O)O)C1CC(=O)O (stereo not given) [Dihydrokainic acid],scaled lipid accumulation score,[1],inactive: 0.08
"CC(=O)N1CC[N+](C)(C)CC1 [4-Acetyl-1,1-dimethylpiperazinium iodide]",scaled lipid accumulation score,[1],inactive: 0.017
CC[C@@]1([C@H]2O[C@H]([C@H]3O[C@@](O)(CO)[C@H](C)C[C@@H]3C)C[C@H]2C)CC[C@H]([C@@]2(C)CC[C@]3(C[C@H](O)[C@@H](C)[C@@H]([C@H](C)[C@H](OC)[C@@H](C)C(=O)O)O3)O2)O1 [Monensin sodium],scaled lipid accumulation score,library stock concentration: 7.2 mM,inactive: 0.508
C[C@H]1O[C@@H](O[C@H]2CC[C@]3(C=O)[C@H]4CC[C@]5(C)[C@@H](C6=CC(=O)OC6)CC[C@]5(O)[C@@H]4CC[C@]3(O)C2)C[C@H](O)[C@@H]1O [Helveticoside],scaled lipid accumulation score,,inactive: 0.504
"CC(N)C(O)c1ccc(O)c(O)c1 (single isomer, unassigned; (-)) [(-)-alpha-Methylnorepinephrine]",scaled lipid accumulation score,[1],inactive: 0.196
CC1C=CC=CCCC=CC=CC=CC=CC(OC2OC(C)C(O)C(N)C2O)CC2OC(O)(CC(O)C(O)CCC(O)CC(O)CC(O)CC(=O)OC(C)C(C)C1O)CC(O)C2C(=O)O (stereo not given) [Nystatin],scaled lipid accumulation score,[1],inactive: ≤ 0
Cl.Oc1ccc2c3c1O[C@H]1c4[nH]c5ccccc5c4C[C@@]4(O)C(C2)N(CC2CC2)CCC314 (stereo not given in full) [Naltrindole hydrochloride],scaled lipid accumulation score,[1],active: 1.1
